# About 1,900 (1.5%) of roughly 130,000 compounds were called active. The inconclusive results got no clear call from the source; some entries with a clear call stand among them for comparison. Calls come from the whole dose curve; as a rule, active = well fitted cell-killing curve with a large enough effect; inconclusive = small, poorly fitted or top-dose-only effect; inactive = no such curve, though single readings can be large or run the other way. Potencies beside an inconclusive call are fits to weak or partial responses and may not hold up.
# Test: qHTS Screen for Compounds that Selectively Target Cancer Cells with p53 Mutations: Cytotoxicity of p53ts Cells at the Nonpermissive Temperature; note: nearly all actives have a fitted effect of over 55% in size
# Conditions: H1299-p53A138V viability at 39C, ATP luminescence, 24 h; activity change, negative = cell killing: at 46.1 µM (top of the series)
# % is set by controls: 0 for no effect and ±100 for the full control effect; potency is the fitted concentration of half-maximal effect; tags give direction and shape of the fitted curve.
Compound,Potency,"activity change, negative = cell killing"
CCOC(=O)c1cccc(NC(=O)C2CCCN2S(=O)(=O)c2cccc3cccnc23)c1 (stereo unspecified),"inconclusive: 31.6 µM [cytotoxic, single point]",–
Cc1cc(C)cc(-n2cnc3cc(C(=O)NC4CCCCCC4)ccc32)c1,–,inactive: 8.48%
O=C(NCCOc1ccccc1)c1ccc2c(c1)OCO2,"inconclusive: 10 µM [cytotoxic, partial curve]",–
Cn1cc(-c2nc3cnc(N4CCNCC4)nc3n(C3CC3)c2=O)c2ccccc21,"inconclusive: 15.8 µM [cytotoxic, single point]",–
CSc1ncc(Cl)c(C(=O)Nc2ccc(S(=O)(=O)Nc3nccc(C)n3)cc2)n1,"inconclusive: 20 µM [cytotoxic, partial curve]",–
CC(=O)C1=C(c2ccccc2)N(C(C)=O)n2c(nnc2C2CCCCC2)S1,–,inactive: 7.96%
COc1ccc(-n2nc3cc(C)c(NC(=O)c4ccc(-c5ccc(Br)cc5)o4)cc3n2)cc1,"inconclusive: 31.6 µM [cytotoxic, single point]",–
O=C(Nc1ccc2nsnc2c1)c1ccc2c(c1)OCO2,"inconclusive: 3.98 µM [cytotoxic, full curve]",–
c1ccc(-c2nnc(-c3ccccn3)nn2)nc1,"inconclusive: 31.6 µM [cytotoxic, single point]",–
Cc1cc(C)cc(C(=O)NCC(c2ccc(N(C)C)cc2)N2CCCC2)c1 (stereo unspecified),"inconclusive: 35.5 µM [cytotoxic, single point]",–
Cc1nc2cc(NC(=O)Nc3nccs3)ccc2n1C,active: 7.94 µM,–
CN(C)CCC(=O)[C@@]1(O)CC[C@H]2[C@H]3CC=C4C[C@@H](O)CC[C@]4(C)[C@H]3CC[C@]21C,–,inactive: -4.84% [at 9.22 µM]
COc1ccccc1CN(Cc1cc2cc(C)ccc2[nH]c1=O)Cc1nnnn1CC1CCCO1 (stereo unspecified),"inconclusive: 10 µM [cytotoxic, partial curve]",–
COc1ccc(OC)c2sc(N3CCCCC3)nc12,"inconclusive: 10 µM [cytotoxic, single point]",–
COc1ccc(-c2nnc(SCC(=O)Nc3ccc(C)c(C)c3)s2)cc1,"inconclusive: 1.58 µM [cytotoxic, partial curve, poor fit]",–
CN1CCN(c2ncc3nc(-c4cc(F)cc(F)c4)c(=O)n(Cc4cccs4)c3n2)CC1,–,inactive: -10%
CCOC(=O)N1CCN(Cc2nc3cc(NC(=O)c4cccc(C)c4)ccc3n2C(C)C)CC1,"inconclusive: 6.31 µM [cytotoxic, full curve, poor fit]",–
Cn1c(O)c(N=N/C(=N/c2ccccn2)c2ccccn2)c2cc(Br)ccc21,–,inactive: -29.8%
Fc1ccc(-n2ncc3c(Nc4cccc(Cl)c4)ncnc32)cc1,"inconclusive: 1 µM [cytotoxic, partial curve]",–
Cc1cc(OC(C)C(=O)N(Cc2ccc(N(C)C)cc2)Cc2ccco2)ccc1Cl (stereo unspecified),–,inactive: -15.2%
CCN(CC)C(C)CN1c2ccccc2Sc2ccccc21 (stereo unspecified),active: 25.1 µM,–
Cc1cc(C)n2c(Br)c(CSc3nc4ccccc4o3)nc2n1,–,inactive: 0.126%
Cc1ccc2c(c1)N(C(=O)Nc1cccc3c1CCCC3)CCO2,"inconclusive: 31.6 µM [cytotoxic, single point]",–

Compound,Potency,"activity change, negative = cell killing"
CCCn1c(-c2ccc(F)cc2)nc2c(NC3CCN(Cc4ccccc4)CC3)nc(C)nc21,–,inactive: -17.9%
O=C(NCCc1ccccc1)c1ccc(Nc2nc3ccccc3n3nnnc23)cc1,"inconclusive: 12.6 µM [cytotoxic, single point]",–
O=C(Cn1c(=O)n(-c2ccccc2)c(=O)c2c3c(sc21)CCCC3)Nc1ccc(F)cc1F,–,inactive: -26.4%
Cc1nn(C)c2c1c(-c1ccccc1)cc(=O)n2CC(=O)NC(C)c1ccccc1 (stereo unspecified),"inconclusive: 1.26 µM [cytotoxic, full curve]",–
CCCOc1ccc(C2c3c(-c4c(C)cc(C)cc4O)n[nH]c3C(=O)N2CCO)cc1 (stereo unspecified),"inconclusive: 31.6 µM [cytotoxic, single point]",–
O=C(Cn1c(=O)n(Cc2ccccc2)c(=O)c2sc3ccccc3c21)Nc1ccccc1,active: 12.6 µM,–
Cc1ccc(Cl)cc1NC(=O)c1sc(-n2nc(C)c(Cc3ccc4c(c3)OCO4)c2C)nc1C,"inconclusive: 3.98 µM [cytotoxic, partial curve]",–
CCN(CC)c1ccc(/C=N/NC(=O)c2ccc(O)cc2)cc1,"inconclusive: 7.94 µM [cytotoxic, partial curve]",–
COc1ccccc1-c1noc(-c2ccc(NC3CCCC3)c([N+](=O)[O-])c2)n1,–,inactive: 29.2%
CC(=O)c1cc(-c2ccccc2)n(CC(=O)Nc2ccc(C)c(C)c2)c1C,"inconclusive: 10 µM [cytotoxic, partial curve, poor fit]",–
CCOC(=O)CSc1n[nH]c(-c2ccco2)n1,–,inactive: -4.38%
CCCCC(=O)N1CCc2cc(OC)c(OC)cc2C1COc1ccc(OC)cc1 (stereo unspecified),"inconclusive: 20 µM [cytotoxic, partial curve, poor fit]",–
COc1ccc(CCNc2nc(SCc3ccc(Cl)cc3)nc3ccccc23)cc1OC,"inconclusive: 20 µM [cytotoxic, partial curve, poor fit]",–
O=C(Nc1cccc(-c2nc3ccccc3o2)c1)C(F)(F)F,"inconclusive: 15.8 µM [cytotoxic, single point]",–
Brc1ccc2nc(CSc3ncn[nH]3)cn2c1,–,inactive: -5.78%
Cc1ccn2c(Nc3ccc(C(C)C)cc3)c(-c3cccnc3)nc2c1,active: 25.1 µM,–
CC(C)[C@H](Nc1ncnc2nc[nH]c12)C(=O)O,–,inactive: -0.65% [at 9.22 µM]
COc1ccc(-c2nc3cnc(N4CCN(C)CC4)nc3n(Cc3cccc(OC)c3)c2=O)cc1,"inconclusive: 31.6 µM [cytotoxic, single point]",–
Cc1ccc(NC(=O)CC2Sc3ccc(C(F)(F)F)cc3NC2=O)cc1 (stereo unspecified),–,inactive: -2.72%
COc1cccc(CNS(=O)(=O)c2ccc3c(c2)C(C(C)C)C(=O)N3)c1 (stereo unspecified),"inconclusive: 1.26 µM [cytotoxic, single point]",–
[C-]#[N+]/C(C#N)=C\c1cc(C(C)(C)C)c(O)c(C(C)(C)C)c1,"inconclusive: 12.6 µM [cytotoxic, partial curve]",–
Cc1ccc2nc(-c3cc(NC(=O)COc4ccc(C)c(C)c4)ccc3Cl)oc2c1,active: 12.6 µM,–
NC(N)=Nc1ccc(-c2ccc(N=C(N)N)cc2)cc1,–,inactive: 7.27% [at 9.22 µM]
